Reference: article PMC4336329 (PLoS ONE, 2015)
Hit rate of the full screen: of about 310,000 compounds, about 14,000 (4.5%) showed an effect of 50% or more. Effects have a minus sign here. This is one part of the list.

Target: human ether-à-go-go-related gene (hERG) potassium channel (human, UniProt Q12809)
Assay: primary screen, population patch clamp on CHO cells stably expressing hERG
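Note: peak tail current of the secondary pulse compared with the same well before compound.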

human ether-à-go-go-related gene (hERG) potassium channel, sequence (Q12809 whole entry, looked up): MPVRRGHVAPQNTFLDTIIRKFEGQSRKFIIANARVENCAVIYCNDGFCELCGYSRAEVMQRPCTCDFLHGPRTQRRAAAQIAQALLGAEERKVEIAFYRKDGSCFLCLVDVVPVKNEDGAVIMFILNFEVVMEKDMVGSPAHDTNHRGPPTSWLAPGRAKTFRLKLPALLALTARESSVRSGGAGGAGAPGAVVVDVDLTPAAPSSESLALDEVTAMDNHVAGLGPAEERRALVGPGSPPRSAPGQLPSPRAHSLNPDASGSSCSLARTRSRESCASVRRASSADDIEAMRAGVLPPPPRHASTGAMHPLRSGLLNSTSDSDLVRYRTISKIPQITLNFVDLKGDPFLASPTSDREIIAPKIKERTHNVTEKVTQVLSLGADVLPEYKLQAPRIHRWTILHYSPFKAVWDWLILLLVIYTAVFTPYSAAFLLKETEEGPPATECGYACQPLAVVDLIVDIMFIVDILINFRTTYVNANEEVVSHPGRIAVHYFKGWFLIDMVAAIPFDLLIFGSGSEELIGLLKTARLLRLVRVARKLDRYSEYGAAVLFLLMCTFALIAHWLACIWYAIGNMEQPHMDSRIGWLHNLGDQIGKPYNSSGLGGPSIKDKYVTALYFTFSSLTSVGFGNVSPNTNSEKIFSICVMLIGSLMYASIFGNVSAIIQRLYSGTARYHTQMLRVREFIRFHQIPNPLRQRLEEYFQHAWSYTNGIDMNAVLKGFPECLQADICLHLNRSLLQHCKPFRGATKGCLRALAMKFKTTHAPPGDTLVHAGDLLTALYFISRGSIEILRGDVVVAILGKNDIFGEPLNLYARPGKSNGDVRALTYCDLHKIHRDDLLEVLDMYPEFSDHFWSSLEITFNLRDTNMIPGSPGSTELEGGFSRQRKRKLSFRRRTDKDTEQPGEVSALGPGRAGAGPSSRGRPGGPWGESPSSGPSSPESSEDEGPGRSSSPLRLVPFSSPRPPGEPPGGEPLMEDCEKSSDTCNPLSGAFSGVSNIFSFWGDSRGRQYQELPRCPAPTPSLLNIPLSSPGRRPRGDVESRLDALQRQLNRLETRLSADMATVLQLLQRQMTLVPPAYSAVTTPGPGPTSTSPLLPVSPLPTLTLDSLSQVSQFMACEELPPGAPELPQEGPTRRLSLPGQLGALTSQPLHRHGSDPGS

SMILES | hERG current change (%, negative = inhibition) at 10uM
COc1ccc(CN(C)C(=O)c2ccc(NS(=O)(=O)c3ccc4[nH]c(=O)[nH]c4c3)cc2)c(OC)c1 | -7.33%
COC(=O)c1ccc(NC(=O)C2CCCN(S(C)(=O)=O)C2)cc1 (stereo not shown) | 17%
CSc1ncc(CN2CCCC(C(=O)c3ccc(C(C)(C)C)cc3)C2)cn1 (stereo not shown) | -31.9%
CCCCOC(=O)Nc1cccc(C(=O)OCC)c1 | -1.82%
O=C(O)c1cc(S(=O)(=O)N2CCN(S(=O)(=O)c3ccccc3)CC2)ccc1Cl | 18.5%
Cc1cc(/C=N/NC(=O)c2ccccc2F)c(C)n1-c1ccccc1 | -5.49%
O=C(O)c1ccc2nc3c(nc2c1)-c1ccccc1C3=O | 23.8%
O=C(NCc1ccncc1)Nc1ccc2c(c1)OCO2 | 9.91%
CCOC(=O)Cc1nc2ccccc2[nH]1 | -16.4%
O=C(Cn1ncc2c3ccccc3n(Cc3ccccc3F)c2c1=O)N1CCC2(CC1)OCCO2 | -72.8%
CCN(CC)c1ccc(/C=N/N2CCN(Cc3ccc(C)cc3C)CC2)c(O)c1 | 1.12%
Cc1ccc(OCCOC(=O)c2cccc(S(=O)(=O)N3CC(C)OC(C)C3)c2)cc1 (stereo not shown) | -2.59%
NC(=O)C1=C[C@@H](c2csc3ccccc23)C[C@@H](OCCCCO)O1 | -27.4%
O=C1NC(=Nc2ccc(F)cc2)SC1Cc1ccc(F)cc1 (stereo not shown) | -3.61%
c1ccc2c(c1)OCC(CNc1ncnc3nc[nH]c13)O2 (stereo not shown) | 6.22%
O=C1CC(c2cccc(F)c2)SC(N(c2ccccc2)c2ccccc2)=N1 (stereo not shown) | -9.7%
COc1ccc(Oc2coc3cc(OC(=O)/C=C/c4ccc(F)cc4)ccc3c2=O)cc1 | 3.31%
CC1(C)CNc2cc([N+](=O)[O-])ccc2S1 | 6.88%
COc1ccc(NC(C)=O)cc1NS(=O)(=O)c1cn(C)c(=O)n(C)c1=O | 12.9%
COc1ccc(C=NCC2OCCc3ccccc32)cc1OC (stereo not shown) | 14.2%
CCOC(=O)c1ccc(NC(=O)CSc2nc(=O)n3cccc(C)c3n2)cc1 | -21.9%
CC(CC(=O)Nc1ccccc1)n1ccnc1 (stereo not shown) | -5.07%
COc1ccc(C(C(=O)NC2CCCCC2)N(C(=O)c2sc(C)nc2C)c2ccc(C(C)=O)cc2)cc1 (stereo not shown) | 12.6%

SMILES | hERG current change (%, negative = inhibition) at 10uM
COc1cccc(NC(=O)c2cc([N+](=O)[O-])ccc2NC(=O)CNCC2CCCO2)c1 (stereo not shown) | -16.4%
O=C(Cn1nnc(-c2ccccc2F)n1)Nc1cccc2ncccc12 | 6.23%
CCCc1cc(=O)[nH]c(SCc2cccnc2)n1 | 5.5%
CC1Cc2ccccc2N1c1ncnc2c1nnn2Cc1ccccc1Cl (stereo not shown) | 7.99%
COc1cccc2cc(C(C)N(CCCN3CCOCC3)C(=S)Nc3ccc(C)c(C)c3)oc12 (stereo not shown) | 17%
Cc1cc2c(NCC(C)O)ncnc2s1 (stereo not shown) | 17.2%
O=C(CN(C(=O)c1csnn1)c1cccc2ccccc12)NC1CCCC1 | -2.34%
O=C(O)COc1ccccc1/C=N/NC(=O)/C(=C\c1ccc2c(c1)OCO2)NC(=O)c1ccccc1 | 12.7%
Cc1ccc(N2C(=O)CC(N3CCN(S(=O)(=O)c4ccccc4)CC3)C2=O)c(C)c1 (stereo not shown) | 1.53%
COc1ccc(CCNC(=O)c2nonc2N)cc1 | -15.8%
O=C(Nc1ccc(Cl)cn1)c1cccc(S(=O)(=O)N2CCCC2)c1 | -50.9%
COCc1ccc(C(=O)N2CCCC(N3CCN(c4ccc(F)cc4)CC3)C2)o1 (stereo not shown) | -47.3%
Cc1ccc(-c2[nH]ncc2CNCCc2cnn(-c3ccccc3)c2)cc1C | -66.4%
C=C1CCN([C@@H](CC(C)C)C(=O)NCCC(C)C)S(=O)(=O)c2ccccc21 | -6.27%
O=C(NC(=S)Nc1ccccc1)c1ccc(Br)o1 | 13.7%
CSc1ccc(CNC(=O)c2ccc(NC(=O)C3=CSCCO3)cc2)cc1 | 28.4%
COc1nc(OC)nc(N2CCC(C(=O)NCc3cccs3)CC2)n1 | -45%
O=C(CNC(=O)c1sc2ccccc2c1Cl)NC1CC1 | 3.65%
CCCc1nc2cc(CC(=O)OC)ccc2o1 | 25.6%
CCOC(=O)CSc1nc2ccccc2c(=O)n1C1CCCC1 | -14.3%
CCCN1CCO[C@@H]2c3cc(O)ccc3OC[C@H]21.Cl | 12%
CC(C)NC(=O)CC(=O)N/N=C\c1ccccc1C(=O)O | 35.9%
CC1CCN(c2nc3c(cc2C#N)COC(C)(C)C3)CC1 | -4.31%

SMILES | hERG current change (%, negative = inhibition) at 10uM
COc1ccc(-c2nnc(Nc3nc4c(OC)cccc4s3)o2)cc1 | 10.5%
CC(C)C(NC(=O)C1CCCCC1)C(=O)NCc1ccccn1 (stereo not shown) | 9.17%
COc1ccc(C(=O)NCCN2CCOCC2)c(OC)c1OC | -5.11%
Cc1cc(C)nc(NC(=O)Cc2ccc([N+](=O)[O-])cc2)c1 | -67.9%
Cc1ccc2c(CC(=O)O)coc2c1 | 22.8%
Cc1ccccc1-n1c(=O)c2ccccc2n2c(=O)[nH]nc12 | 19.4%
NC(=O)c1ccc(=O)n(Cc2ccc(Cl)cc2Cl)c1 | 9.04%
Cc1c(Cl)cnc(NC(=O)COC(=O)C(NC(=O)c2ccco2)C(C)C)c1Cl (stereo not shown) | -7.44%
Cn1c(C(=O)NCCN2CCN(c3ccccc3F)CC2)cc2c(=O)n(C)c3ccccc3c21 | -4.62%
Nc1ncnc(SCc2c(F)cccc2Cl)n1 | 12.4%
O=C(NCCN1CCOCC1)c1cc(Sc2ccc(F)cc2F)nc2ccccc12 | -42.8%
O=C(N/N=C/c1cccc(OC(=O)c2ccccc2Cl)c1)c1cccnc1 | -17%
CCOc1ccc(N/C(=N/c2nc(C)cc(C)n2)NC(=O)CC)cc1 | -13.3%
COc1ccc(CNC(=O)C2CCCN(S(=O)(=O)N3CC(C)CC(C)C3)C2)c(OC)c1 (stereo not shown) | -6.97%
CC(C)(C)NC(=O)NC(=O)COC(=O)c1ccco1 | -11.8%
Cc1c(NC(=S)N/N=C/c2cc([N+](=O)[O-])ccc2O)c(=O)n(-c2ccccc2)n1C | 10.7%
O=C1Cc2ccccc2C(c2ccccc2)N1 (stereo not shown) | 9.81%
CCC(=O)N1CCc2cc(OC)c(OC)cc2C1COc1ccc(OC)cc1 (stereo not shown) | 1.62%
CCN1CCN(S(=O)(=O)c2ccc(OC)c(Br)c2)CC1 | 6.53%
COc1ccccc1-n1cc(C(=O)N2CCCC(CO)(Cc3ccccc3C)C2)cn1 (stereo not shown) | -3.01%
O=S(=O)(c1cnccc1N1CCN(/N=C/c2ccccc2)CC1)N1CCCCC1 | 8.51%
Cc1ccc(NC(=O)c2ccc(NC(=O)c3ccccc3)cc2)cc1C | 6.29%
OCC1(Cc2cccc(Cl)c2)CCCN(Cc2ccc3cc(F)ccc3n2)C1 (stereo not shown) | -23.8%

SMILES | hERG current change (%, negative = inhibition) at 10uM
CCCOCC(O)CCc1n[nH]c(=S)n1-c1ccccc1 (stereo not shown) | 33.7%
COC(=O)CSc1nc2c(c(=O)[nH]c(=O)n2C)n1CCC(C)C | -3.93%
C=CCn1c(C)c(C(=O)OCC)c2cc(O)c3ccccc3c21 | 14.5%
O=C(CCc1nnc(CCC2CCCCC2)o1)NCCc1ccccn1 | -27.3%
O=C(/C=C/c1ccc2c(c1)OCO2)Nc1ccc(Cl)cn1 | 2.05%
C=CCn1c(COc2ccccc2)nnc1SCC(=O)Nc1ccc(S(N)(=O)=O)cc1 | 0.0712%
O=C(c1cc(-c2ccc(O)cc2)on1)N1CCN(c2ccc(F)cc2)CC1 | -23.6%
CC(C)CNC(=O)N1c2ccccc2Sc2ccccc21 | -6.5%
Cc1cc(C)n2c(=S)[nH]nc2n1 | 19.6%
O=C(Nc1cccc([N+](=O)[O-])c1)c1ccn[nH]1 | 21.4%
CC(CNC(=O)CN1C(=O)COc2ccc(S(=O)(=O)N3CCCCC3)cc21)c1ccccc1 (stereo not shown) | 15%
CS(=O)(=O)c1ccc(-n2c(=O)n(Cc3ccccc3)c(=O)c3[nH]cnc32)cc1 | -45.7%
CCCN1C2CCCC1CC(NC(=O)c1ccc(Br)cc1)C2 (stereo not shown) | -66.3%
COC(=O)/N=C(/Cc1ccc(OC)cc1)c1ccc(OC)cc1 | -4.39%
Cc1ccc(NC(=O)CSCc2cc(=O)n3ccsc3n2)c(C)c1 | 15.5%
COc1cccc(CC(=O)Nc2ccccc2N2CCCC2)c1 | -5.39%
Cc1ccc(S(=O)(=O)Nc2ccc3ncccc3c2)cc1 | -6.36%
Cc1cc(=O)[nH]c2ccccc12 | 14.1%
Cc1ccc2nsnc2c1NC(=O)c1ccc([N+](=O)[O-])cc1 | -39.6%
CCCCC(=O)Nc1cc([N+](=O)[O-])ccc1F | 22.5%
CCS(=O)(=O)N1CCC(C(=O)NCc2cccnc2)CC1 | -11.7%
Cc1cc(N2CCN(S(=O)(=O)c3ccc(Cl)cc3)CC2)c2ccccc2n1 | -77.8%
